Source: patent US9963455B2, “Pyrazolo[1,5-a]pyrimidines as antiviral compounds” (Curovir AB, priority 2014, dated 2018)

Experiments:
[1] = rat, single dose, doses up to 2000 mg/kg
[2] = 28 days toxicity study, rat; conditions: Sprague Dawley rats
Procedure: In light of above findings from the present study, the No Observed Adverse Effect Level (NOAEL) of Ex 9 could be determined as 200 mg/kg body weight when administered orally to Sprague Dawley rats for 28 consecutive days under the tested dose levels and experimental conditions employed.

Which “effects on clinical signs, mortality, body weight, body weight gain, feed consumption, absolute and relative organ weights” value [1] does the source give for `COc1ccc(-c2c(C)nn3c(NCc4ccc(F)cc4)cc(C)nc23)cc1OC` [Ex. 9, 3-(3,4-dimethoxyphenyl)-N-[(4-fluorophenyl)methyl]-2,5-dimethyl-pyrazolo[1,5-a]pyrimidin-7-amine] here?
Its value is “no adverse effects”.

What about the macroscopic examination [1] of the same molecule?
The macroscopic examination was “no treatment related gross pathological findings were observed”.

What about the “effects on clinical signs, body weight, feed consumption, hematology, clinical chemistry, urinalysis, neurological examination, gross necropsy and histopathological evaluation” value ([2]; 100 and 200 mg/kg body weight for 28 days, both sexes) of the same molecule?
Its value is “no adverse effects”.

And the “Serum biochemistry, liver findings” value ([2]; 28 days, at 200 mg/kg body weight in both the sexes)?
Its value is “increase in cholesterol, which was correlated with findings of macrovesicular fatty changes in liver”.
